# Reference: the supplement of paper PMC8728848
# This is one part of the list.
# B1: LgFlo1 (Saccharomyces pastorianus), B3IUA8 (protein)
# chain: SGSTQACLPVGSRKNGMNVNFYKYSLQDSTTYSDPQYMAYKYSDTKKLGSVSGQTHLSIYYGPNTAFWNTASWSSDLFGFYTTPTNVTVEMTGYFLPPQTGSYTFKFATVDDSAILSVGGSIAFECCAQEQPPITSTDFTINGIKPWDAATPTDIKGSTYMYAGYYYPIKIVYSNAKALARLPVSVVLPDGTEVNDDFEGYVYSFDDDLSQSNCTIPDPSKHTTS
# Key:
# Experiment in all cases: glycan array binding signal (z-score within array); higher = stronger binding
# Settings in all cases: glycan notation: IUPAC condensed, linker removed
# [1] = biological target: Gal(b1-4)GlcNAc(b1-6)Gal(b1-4)GlcNAc
# Procedure, shortened: (§1)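 Glycan array data came from 3228 arrays in the Consortium for Functional Glycomics database, and only arrays with an available protein sequence were kept. Glycan names were put into IUPAC-condensed notation, and columns mapping to the same glycan were averaged. The binding signal is a within-array Z-score, averaged across arrays of one protein sequence run at different concentrations or buffers and across linkers. A negative Z-score can be read as non-binding.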
# [2] = biological target: Gal(b1-4)GlcNAc(b1-6)GalNAc
# Procedure, shortened: as §1
# [3] = biological target: Gal(b1-4)GlcNAc(b1-6)[Gal(b1-3)]GalNAc
# Procedure, shortened: as §1
# [4] = biological target: Gal(b1-4)GlcNAc(b1-6)[Gal(b1-4)GlcNAc(b1-3)]GalNAc
# Procedure, shortened: as §1
# Gal(b1-4)GlcNAc6P = biological target: Gal(b1-4)GlcNAc6P
# Procedure, shortened: as §1
# Gal(b1-6)Gal = biological target: Gal(b1-6)Gal
# Procedure, shortened: as §1
# Gal3S(b1-3)GalNAc = biological target: Gal3S(b1-3)GalNAc
# Procedure, shortened: as §1
# Gal3S(b1-3)GlcNAc = biological target: Gal3S(b1-3)GlcNAc
# Procedure, shortened: as §1
# [5] = biological target: Gal3S(b1-3)[Fuc(a1-4)]GlcNAc
# Procedure, shortened: as §1
# Gal3S(b1-4)Glc = biological target: Gal3S(b1-4)Glc
# Procedure, shortened: as §1
# Gal3S(b1-4)Glc6S = biological target: Gal3S(b1-4)Glc6S
# Procedure, shortened: as §1
# Gal3S(b1-4)GlcNAc = biological target: Gal3S(b1-4)GlcNAc
# Procedure, shortened: as §1
# [6] = biological target: Gal3S(b1-4)[Fuc(a1-3)]Glc6S
# Procedure, shortened: as §1
# [7] = biological target: Gal3S(b1-4)[Fuc(a1-3)]GlcNAc
# Procedure, shortened: as §1
# [8] = biological target: Gal3S(b1-4)[Fuc(a1-3)]GlcNAc6S
# Procedure, shortened: as §1
# Gal3S4S(b1-4)GlcNAc = biological target: Gal3S4S(b1-4)GlcNAc
# Procedure, shortened: as §1
# Gal3S6S(b1-4)GlcNAc = biological target: Gal3S6S(b1-4)GlcNAc
# Procedure, shortened: as §1
# Gal3S6S(b1-4)GlcNAc6S = biological target: Gal3S6S(b1-4)GlcNAc6S
# Procedure, shortened: as §1
# Gal4S(b1-4)GlcNAc = biological target: Gal4S(b1-4)GlcNAc
# Procedure, shortened: as §1
# Gal4S6S(b1-4)GlcNAc = biological target: Gal4S6S(b1-4)GlcNAc
# Procedure, shortened: as §1
# Gal6P(b1-4)GlcNAc = biological target: Gal6P(b1-4)GlcNAc
# Procedure, shortened: as §1
# Gal6S(b1-3)GlcNAc = biological target: Gal6S(b1-3)GlcNAc
# Procedure, shortened: as §1
# Gal6S(b1-3)GlcNAc6S = biological target: Gal6S(b1-3)GlcNAc6S
# Procedure, shortened: as §1
binder,measurement,setting,value
B1,glycan array binding signal (z-score),[1],0.015
same,glycan array binding signal (z-score),[2],-0.099
same,glycan array binding signal (z-score),[3],-0.383
same,glycan array binding signal (z-score),[4],-0.21
same,glycan array binding signal (z-score),Gal(b1-4)GlcNAc6P,-0.242
same,glycan array binding signal (z-score),Gal(b1-6)Gal,0.201
same,glycan array binding signal (z-score),Gal3S(b1-3)GalNAc,-0.277
same,glycan array binding signal (z-score),Gal3S(b1-3)GlcNAc,-0.347
same,glycan array binding signal (z-score),[5],-0.286
same,glycan array binding signal (z-score),Gal3S(b1-4)Glc,-0.258
same,glycan array binding signal (z-score),Gal3S(b1-4)Glc6S,-0.25
same,glycan array binding signal (z-score),Gal3S(b1-4)GlcNAc,-0.484
same,glycan array binding signal (z-score),[6],0.295
same,glycan array binding signal (z-score),[7],-0.442
same,glycan array binding signal (z-score),[8],-0.271
same,glycan array binding signal (z-score),Gal3S4S(b1-4)GlcNAc,-0.361
same,glycan array binding signal (z-score),Gal3S6S(b1-4)GlcNAc,-0.232
same,glycan array binding signal (z-score),Gal3S6S(b1-4)GlcNAc6S,0.039
same,glycan array binding signal (z-score),Gal4S(b1-4)GlcNAc,-0.384
same,glycan array binding signal (z-score),Gal4S6S(b1-4)GlcNAc,-0.238
same,glycan array binding signal (z-score),Gal6P(b1-4)GlcNAc,-0.356
same,glycan array binding signal (z-score),Gal6S(b1-3)GlcNAc,0.121
same,glycan array binding signal (z-score),Gal6S(b1-3)GlcNAc6S,-0.314
